Assay results: PubChem BioAssay (Tox21)
Inconclusive results, whose numbers are uncertain, are shown with a selection of clear calls. Where the call is inconclusive, the potency comes from a doubtful curve fit. Active and inactive are the calls of the source. Calls come from the whole dose curve; as a rule, active = well fitted inhibition curve with a large enough effect in the signal ratio in the repeat runs (not every such curve was filed as active); inconclusive = weak or mixed curves; inactive = flat fitted curve, though single readings scatter; the % refers to the signal ratio.
% is set by controls: 0 for no effect and ±100 for the full control effect; potency is the fitted concentration of half-maximal effect; tags give direction and shape of the fitted curve.

What follows are molecules tested against Progesterone receptor (Homo sapiens) (UniProt P06401) (assay: qHTS assay to identify small molecule antagonists of the progesterone receptor (PR) signaling pathway (AID 1346795)). Conditions: PR-UAS-bla HEK293T, beta-lactamase FRET ratio, 16 h; activity change, negative = inhibition: at 92.4 µM (top of the series) unless noted.
Chain of UniProt P06401 (P06401 whole entry, looked up): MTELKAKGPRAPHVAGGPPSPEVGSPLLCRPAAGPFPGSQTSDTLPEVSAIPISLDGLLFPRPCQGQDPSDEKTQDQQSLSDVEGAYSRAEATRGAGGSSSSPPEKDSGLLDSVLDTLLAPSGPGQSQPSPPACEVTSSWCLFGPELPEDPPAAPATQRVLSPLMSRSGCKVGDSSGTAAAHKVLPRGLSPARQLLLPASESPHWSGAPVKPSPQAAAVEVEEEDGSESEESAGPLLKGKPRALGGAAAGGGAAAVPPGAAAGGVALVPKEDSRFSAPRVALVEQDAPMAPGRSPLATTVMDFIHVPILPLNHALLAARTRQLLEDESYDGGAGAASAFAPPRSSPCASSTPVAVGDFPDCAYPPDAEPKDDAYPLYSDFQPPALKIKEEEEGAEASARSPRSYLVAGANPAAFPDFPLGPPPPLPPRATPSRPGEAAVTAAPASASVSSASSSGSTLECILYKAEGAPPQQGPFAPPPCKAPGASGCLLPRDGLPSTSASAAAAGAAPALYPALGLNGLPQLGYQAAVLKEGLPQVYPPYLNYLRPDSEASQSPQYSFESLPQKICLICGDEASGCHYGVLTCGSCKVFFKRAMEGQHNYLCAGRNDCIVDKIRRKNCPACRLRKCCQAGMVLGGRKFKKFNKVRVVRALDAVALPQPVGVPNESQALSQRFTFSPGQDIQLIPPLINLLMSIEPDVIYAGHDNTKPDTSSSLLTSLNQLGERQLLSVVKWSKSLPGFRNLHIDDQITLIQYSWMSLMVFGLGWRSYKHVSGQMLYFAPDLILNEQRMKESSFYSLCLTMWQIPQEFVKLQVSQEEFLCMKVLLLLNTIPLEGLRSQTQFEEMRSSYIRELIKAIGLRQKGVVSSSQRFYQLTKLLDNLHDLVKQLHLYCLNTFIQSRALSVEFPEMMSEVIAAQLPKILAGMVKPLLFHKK
How it was run: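 Screening used a GripTite HEK293T line with PR-responsive UAS-beta-lactamase. Cells were challenged with compound in the presence of 1 nM R5020 final for 16 hr at 37C; B/G FRET substrate, 2 hr room temperature, fluorescence.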
`Cn1c(=O)c2[nH]c(Br)nc2n(C)c1=O` was tested, and the Potency was “inactive”. For `S=c1nccc[nH]1`, the activity change, negative = inhibition was inconclusive: -17.3%. With `c1ccc2cc(Nc3ccc(Nc4ccc5ccccc5c4)cc3)ccc2c1` the Potency was “inactive”. For `Cc1nc(C)nc(N2C[C@@H](C)N(c3ccnc([C@@H](C)O)n3)[C@@H](C)C2)n1`, the Potency was inconclusive: 26.6 µM [rising, partial curve]. `BrCc1cccc(Oc2ccccc2)c1` was tested, and the activity change, negative = inhibition was inconclusive: -58.4%. For `CCN1CCc2nc(N)oc2CC1`, the Potency was “inactive”. For `NNC(=O)OCc1ccccc1`, the Potency was “inactive”. For `CCCCOC(=O)C(=O)OCCCC`, the Potency was “inactive”. In the case of `C=CC(C)(CCC=C(C)C)OC(=O)c1ccccc1` (centres undefined), the Potency is reported as “inactive”. For `O=c1[nH]cnc2c1ncn2[C@@H]1O[C@H](CO)[C@@H](O)[C@H]1O`, the activity change, negative = inhibition was inconclusive: 4.12% [at 42.5 µM]. With `OCCN(CCO)c1ccccc1` the Potency was “inactive”. For `COC(=O)c1ccc(C(=O)OC)c(C(=O)OC)c1`, the activity change, negative = inhibition was inconclusive: -7.4%. `CC(C)CCCCCCc1ccc(OCCOCCO)cc1` was tested, and the Potency was “inactive”. For `CCC(C)C1N=C(C)C(C)S1` (centres undefined), the Potency was inconclusive: 68.6 µM. With `CN(C)c1ccc(C(c2ccccc2)c2ccc(N(C)C)cc2)cc1` the Potency was active: 13.7 µM. For `CCCCOC(=O)CCCCCCCCC(=O)OCCCC`, the activity change, negative = inhibition was inconclusive: 1.99% [at 42.5 µM]. For `CC(=O)c1ccccc1`, the Potency was inconclusive: 5.64 µM [falling, partial curve]. In the case of `O=S(=O)(c1cccc2cnccc12)N1CCCNCC1`, the activity change, negative = inhibition is reported as inconclusive: -44.1% [at 42.5 µM]. In the case of `CCCCCCCCCC/C=C/C#N`, the Potency is reported as “inactive”.
